Patent US20240059691A1 (KALVISTA PHARMACEUTICALS LIMITED, priority 2020, published 2024)
At least one read-out could not be matched to a standard name with certainty.

Biological target: Human Factor XIIa (Homo sapiens (Human), UniProt P00748)
Experiment: Determination of FXIIa inhibition (fluorogenic substrate H-DPro-Phe-Arg-AFC, IC50 assay)
Assay type: biochemical
Conditions: substrate H-DPro-Phe-Arg-AFC at Km, 25° C.; class scale H1-H3 for compounds that did not achieve 50% inhibition
Experimental: Determination of FXIIa Inhibition
In vitro inhibition of Factor XIIa was determined using an IC50 assay based on standard literature methods (see e.g Baeriswyl et al., ACS Chem. Biol., 2015, 10 (8) 1861; Bouckaert et al., European Journal of Medicinal Chemistry 110 (2016) 181). Human Factor XIIa (Enzyme Research Laboratories) was incubated at 25° C. with the fluorogenic substrate H-DPro-Phe-Arg-AFC (Peptide Protein Science) and various concentrations of the test compound. Protease activity was measured by monitoring the accumulation of liberated fluorescence from the substrate over 5 min at 25° C. The linear rate of fluorescence increase per minute was expressed as percentage (%) activity. The Km for the cleavage of the substrate by FXIIa was determined by standard transformation of the Michaelis-Menten equation. The compound inhibitor assays were performed at substrate Km concentration. IC50 values were calculated as the concentration of inhibitor giving 50% inhibition (IC50) of the uninhibited enzyme activity (100%).

Chain of Human Factor XIIa (P00748 373-615): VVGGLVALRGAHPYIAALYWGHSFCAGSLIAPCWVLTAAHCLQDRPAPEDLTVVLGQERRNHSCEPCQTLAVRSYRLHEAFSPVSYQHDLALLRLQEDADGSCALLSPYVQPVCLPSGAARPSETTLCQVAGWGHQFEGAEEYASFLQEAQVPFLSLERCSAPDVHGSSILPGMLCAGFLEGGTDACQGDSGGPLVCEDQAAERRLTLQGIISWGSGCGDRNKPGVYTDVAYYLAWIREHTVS

SMILES	Human FXIIa IC50 (nM): test compounds that did not achieve 50% inhibition
CC(C)c1cc2c(NCc3ccc(NCC4CCN(C)CC4)nc3)ccnc2[nH]1 [Example 1231, 2-isopropyl-N-((6-(((1-methylpiperidin-4-yl)methyl)amino)pyridin-3-yl)methyl)-1H-pyrrolo[2,3-b]pyridin-4-amine]	H2 (>20% inhibition @ 100 μM)
COc1cc(NCc2ccc(NCC3CCN(C)CC3)nc2)c2cc[nH]c2n1 [Example 1233, 6-methoxy-N-((6-(((1-methylpiperidin-4-yl)methyl)amino)pyridin-3-yl)methyl)-1H-pyrrolo[2,3-b]pyridin-4-amine]	H2 (>20% inhibition @ 100 μM)
Cc1c[nH]c2ncc(NCc3ccc(NCC4CCN(C)CC4)nc3)cc12 [Example 1234, 3-methyl-N-((6-(((1-methylpiperidin-4-yl)methyl)amino)pyridin-3-yl)methyl)-1H-pyrrolo[2,3-b]pyridin-5-amine]	H2 (>20% inhibition @ 100 μM)
Cc1cc2cc(NCc3ccc(NCC4CCN(C)CC4)nc3)cnc2[nH]1 [Example 1235, 2-methyl-N-((6-(((1-methylpiperidin-4-yl)methyl)amino)pyridin-3-yl)methyl)-1H-pyrrolo[2,3-b]pyridin-5-amine]	H2 (>20% inhibition @ 100 μM)
CN1CCC(CNc2ccc(CNc3ccnc4c3CC(=O)N4)cn2)CC1 [Example 1236, 4-(((6-(((1-methylpiperidin-4-yl)methyl)amino)pyridin-3-yl)methyl)amino)-1,3-dihydro-2H-pyrrolo[2,3-b]pyridin-2-one]	H2 (>20% inhibition @ 100 μM)
CN1CCC(CNc2ccc(CNc3cc(C(F)(F)F)cc4c3ccn4C)cn2)CC1 [Example 1238, 1-methyl-N-((6-(((1-methylpiperidin-4-yl)methyl)amino)pyridin-3-yl)methyl)-6-(trifluoromethyl)-1H-indol-4-amine]	H2 (>20% inhibition @ 100 μM)
Cc1ccc(NCc2ccc(NCC3CCN(C)CC3)nc2)c2cc[nH]c12 [Example 1240, 7-methyl-N-((6-(((1-methylpiperidin-4-yl)methyl)amino)pyridin-3-yl)methyl)-1H-indol-4-amine]	H2 (>20% inhibition @ 100 μM)
COc1ccc(NCc2ccc(NCC3CCN(C)CC3)nc2)c2cc[nH]c12 [Example 1242, 7-methoxy-N-((6-(((1-methylpiperidin-4-yl)methyl)amino)pyridin-3-yl)methyl)-1H-indol-4-amine]	H2 (>20% inhibition @ 100 μM)
Cc1ncc(NCc2ccc(NCC3CCN(C)CC3)nc2)c2cc[nH]c12 [Example 1244, 7-methyl-N-((6-(((1-methylpiperidin-4-yl)methyl)amino)pyridin-3-yl)methyl)-1H-pyrrolo[2,3-c]pyridin-4-amine]	H2 (>20% inhibition @ 100 μM)
COC(=O)c1cc2c(NCc3ccc(NCC4CCN(C)CC4)nc3)ccnc2[nH]1 [Example 1247, methyl 4-(((6-(((1-methylpiperidin-4-yl)methyl)amino)pyridin-3-yl)methyl)amino)-1H-pyrrolo[2,3-b]pyridine-2-carboxylate]	H2 (>20% inhibition @ 100 μM)
CN1CCC(CNc2ccc(CNc3ccnc4[nH]c(C(=O)O)cc34)cn2)CC1 [Example 1253, 4-(((6-(((1-methylpiperidin-4-yl)methyl)amino)pyridin-3-yl)methyl)amino)-1H-pyrrolo [2,3-b]pyridine-2-carboxylic acid]	H2 (>20% inhibition @ 100 μM)
CN1CCC(CNc2ccc(CNc3ccnc4c3CC(C)(C)N4)cn2)CC1 [Example 1257, 2,2-dimethyl-N-((6-(((1-methylpiperidin-4-yl)methyl)amino)pyridin-3-yl)methyl)-2,3-dihydro-1H-pyrrolo[2,3-b]pyridin-4-amine]	H2 (>20% inhibition @ 100 μM)
CN1CCC(CNc2ccc(CNc3ccc4cncc(N5CCC(F)(F)C5)c4c3)cn2)CC1 [Example 1260, 4-(3,3-difluoropyrrolidin-1-yl)-N-((6-(((1-methylpiperidin-4-yl)methyl)amino)pyridin-3-yl)methyl)isoquinolin-6-amine]	H1 (>20% inhibition @ 40 μM)
CN1CCC(CNc2ccc(CNc3cc(C#N)nc4[nH]ccc34)cn2)CC1 [Example 1261, 4-(((6-(((1-methylpiperidin-4-yl)methyl)amino)pyridin-3-yl)methyl)amino)-1H-pyrrolo[2,3-b]pyridine-6-carbonitrile]	H1 (>20% inhibition @ 40 μM)
CN1CCC(CNc2ccc(CNc3cc(C(N)=O)nc4[nH]ccc34)cn2)CC1 [Example 1264, 4-(((6-(((1-methylpiperidin-4-yl)methyl)amino)pyridin-3-yl)methyl)amino)-1H-pyrrolo[2,3-b]pyridine-6-carboxamide]	H1 (>20% inhibition @ 40 μM)
FC(F)(F)c1nnc2n1CCN(c1ccc(CNc3ccn4ccnc4c3)cn1)C2 [Example 1288, N-((6-(3-(trifluoromethyl)-5,6-dihydro-[1,2,4]triazolo[4,3-a]pyrazin-7(8H)-yl)pyridin-3-yl)methyl)imidazo[1,2-a]pyridin-7-amine]	H3 (>20% inhibition @ 400 μM)
FC(F)(F)c1nnc2n1CCN(c1ccc(CNc3cnc4[nH]cc(Cl)c4c3)cn1)C2 [Example 1289, 3-chloro-N-((6-(3-(trifluoromethyl)-5,6-dihydro-[1,2,4]triazolo[4,3-a]pyrazin-7(8H)-yl)pyridin-3-yl)methyl)-1H-pyrrolo[2,3-b]pyridin-5-amine]	H1 (>20% inhibition @ 40 μM)
CC(C)Oc1cc(NCc2ccc(N3CCn4c(nnc4C(F)(F)F)C3)nc2)ccn1 [Example 1290, 2-isopropoxy-N-((6-(3-(trifluoromethyl)-5,6-dihydro-[1,2,4]triazolo[4,3-a]pyrazin-7(8H)-yl)pyridin-3-yl)methyl)pyridin-4-amine]	H3 (>20% inhibition @ 400 μM)
Cc1cc(NCc2ccc(N3CCn4c(nnc4C(F)(F)F)C3)nc2)c2cc(Cl)[nH]c2n1 [Example 1293, 2-chloro-6-methyl-N-((6-(3-(trifluoromethyl)-5,6-dihydro-[1,2,4]triazolo[4,3-a]pyrazin-7(8H)-yl)pyridin-3-yl)methyl)-1H-pyrrolo[2,3-b]pyridin-4-amine]	H1 (>20% inhibition @ 40 μM)
Nc1nccc2c(NCc3cnc(N4CCn5c(nnc5C(F)(F)F)C4)c(C(F)(F)F)c3)cccc12 [Example 1306, N5-((5-(trifluoromethyl)-6-(3-(trifluoromethyl)-5,6-dihydro-[1,2,4]triazolo[4,3-a]pyrazin-7(8H)-yl)pyridin-3-yl)methyl)isoquinoline-1,5-diamine]	H1 (>20% inhibition @ 40 μM)
Nc1nccc2c(NCc3ccc(N4CCn5c(nnc5C(F)(F)F)C4)nc3)cncc12 [Example 1317, N5-((6-(3-(trifluoromethyl)-5,6-dihydro-[1,2,4]triazolo[4,3-a]pyrazin-7(8H)-yl)pyridin-3-yl)methyl)-2,7-naphthyridine-1,5-diamine]	H3 (>20% inhibition @ 400 μM)
CN1CCC(COc2ccc(N(C)c3ccc4c(C#N)nccc4c3)cn2)CC1 [Example 1324, 6-(methyl(6-((1-methylpiperidin-4-yl)methoxy)pyridin-3-yl)amino)isoquinoline-1-carbonitrile]	H1 (>20% inhibition @ 40 μM)
CN1CCC(COc2ccc(CNc3ccc4c(Cl)cccc4c3)cn2)CC1 [Example 1325, 5-chloro-N-((6-((1-methylpiperidin-4-yl)methoxy)pyridin-3-yl)methyl)naphthalen-2-amine]	H1 (>20% inhibition @ 40 μM)
Cc1nccc2cc(NCc3ccc(OCC4CCN(C)CC4)nc3)ccc12 [Example 1326, 1-methyl-N-((6-((1-methylpiperidin-4-yl)methoxy)pyridin-3-yl)methyl)isoquinolin-6-amine]	H1 (>20% inhibition @ 40 μM)
CN1CCC(COc2ccc(CNc3ccc4cnccc4n3)cn2)CC1 [Example 1327, N-((6-((1-methylpiperidin-4-yl)methoxy)pyridin-3-yl)methyl)-1,6-naphthyridin-2-amine]	H1 (>20% inhibition @ 40 μM)
COC(=O)c1cncc2ccc(N(C)c3ccc(OCC4CCN(C)CC4)nc3)cc12 [Example 1328, methyl 6-(methyl(6-((1-methylpiperidin-4-yl)methoxy)pyridin-3-yl)amino)isoquinoline-4-carboxylate]	H1 (>20% inhibition @ 40 μM)
CN1CCC(COc2ccc(N(C)c3ccc4cncc(C(=O)O)c4c3)cn2)CC1 [Example 1329, 6-(methyl(6-((1-methylpiperidin-4-yl)methoxy)pyridin-3-yl)amino)isoquinoline-4-carboxylic acid]	H3 (>20% inhibition @ 400 μM)
CN1CCC(COc2ccc(N(C)c3ccc4cncc(C(N)=O)c4c3)cn2)CC1 [Example 1330, 6-(methyl(6-((1-methylpiperidin-4-yl)methoxy)pyridin-3-yl)amino)isoquinoline-4-carboxamide]	H3 (>20% inhibition @ 400 μM)
